# Assay results from the supplement of paper PMC8728848.
# The other results are listed elsewhere or left out.
# What was measured:
# Test in all cases: glycan array binding signal (z-score within array); higher = stronger binding
# Conditions in all cases: glycan notation: IUPAC condensed, linker removed
# [1] = biological target: Fuc(a1-2)Gal
# In short: (§1)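 The binding signal is a Z-score computed within each array and averaged over linkers. Arrays of the same protein sequence at different concentrations or buffers were also averaged together. Data originate from 3228 arrays in the Consortium for Functional Glycomics database, kept only where the protein sequence was available.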
# [2] = biological target: Fuc(a1-2)Gal(b1-3)GalNAc
# In short: as §1
# [3] = biological target: Fuc(a1-2)Gal(b1-3)GalNAc(a1-3)[Fuc(a1-2)]Gal(b1-4)Glc
# In short: as §1
# [4] = biological target: Fuc(a1-2)Gal(b1-3)GalNAc(a1-3)[Fuc(a1-2)]Gal(b1-4)GlcNAc
# In short: as §1
# [5] = biological target: Fuc(a1-2)Gal(b1-3)GalNAc(b1-3)Gal
# In short: as §1
# [6] = biological target: Fuc(a1-2)Gal(b1-3)GalNAc(b1-3)Gal(a1-4)Gal(b1-4)Glc
# In short: as §1
# [7] = biological target: Fuc(a1-2)Gal(b1-3)GalNAc(b1-4)[Neu5Ac(a2-3)]Gal(b1-4)Glc
# In short: as §1
# [8] = biological target: Fuc(a1-2)Gal(b1-3)GlcNAc
# In short: as §1
# [9] = biological target: Fuc(a1-2)Gal(b1-3)GlcNAc(b1-2)Man(a1-3)[Fuc(a1-2)Gal(b1-3)GlcNAc(b1-2)Man(a1-6)]Man(b1-4)GlcNAc(b1-4)GlcNAc
# In short: as §1
# [10] = biological target: Fuc(a1-2)Gal(b1-3)GlcNAc(b1-2)Man(a1-3)[Fuc(a1-2)Gal(b1-3)GlcNAc(b1-2)Man(a1-6)]Man(b1-4)GlcNAc(b1-4)[Fuc(a1-6)]GlcNAc
# In short: as §1
# [11] = biological target: Fuc(a1-2)Gal(b1-3)GlcNAc(b1-3)Gal(b1-4)Glc
# In short: as §1
# [12] = biological target: Fuc(a1-2)Gal(b1-3)GlcNAc(b1-3)GalNAc
# In short: as §1
# [13] = biological target: Fuc(a1-2)Gal(b1-3)GlcNAc(b1-3)[Fuc(a1-2)Gal(b1-3)GlcNAc(b1-6)]GalNAc
# In short: as §1
# [14] = biological target: Fuc(a1-2)Gal(b1-3)GlcNAc(b1-3)[Gal(b1-4)GlcNAc(b1-6)]Gal(b1-4)Glc
# In short: as §1
# [15] = biological target: Fuc(a1-2)Gal(b1-3)GlcNAc(b1-3)[Neu5Ac(a2-6)Gal(b1-4)GlcNAc(b1-6)]Gal(b1-4)Glc
# In short: as §1
# [16] = biological target: Fuc(a1-2)Gal(b1-3)GlcNAc6S
# In short: as §1
# [17] = biological target: Fuc(a1-2)Gal(b1-3)[Fuc(a1-4)]GlcNAc
# In short: as §1
# [18] = biological target: Fuc(a1-2)Gal(b1-3)[Fuc(a1-4)]GlcNAc(b1-2)Man(a1-3)[Fuc(a1-2)Gal(b1-3)[Fuc(a1-4)]GlcNAc(b1-2)Man(a1-3)]Man(b1-4)GlcNAc(b1-4)GlcNAc
# In short: as §1
# [19] = biological target: Fuc(a1-2)Gal(b1-3)[Fuc(a1-4)]GlcNAc(b1-2)Man(a1-3)[Fuc(a1-2)Gal(b1-3)[Fuc(a1-4)]GlcNAc(b1-2)Man(a1-6)]Man(b1-4)GlcNAc(b1-4)[Fuc(a1-6)]GlcNAc(b1-4)[Fuc(a1-6)]GlcNAc
# In short: as §1
# [20] = biological target: Fuc(a1-2)Gal(b1-3)[Fuc(a1-4)]GlcNAc(b1-3)[Fuc(a1-3)[Gal(b1-4)]GlcNAc(b1-6)]Gal(b1-4)Glc
# In short: as §1
# [21] = biological target: Fuc(a1-2)Gal(b1-3)[Fuc(a1-4)]GlcNAc(b1-3)[Gal(b1-4)GlcNAc(b1-6)]Gal(b1-4)Glc
# In short: as §1
# [22] = biological target: Fuc(a1-2)Gal(b1-4)Fuc(a1-3)]GlcNAc(b1-2)Man(a1-3)[Fuc(a1-2)Gal(b1-4)[Fuc(a1-3)]GlcNAc(b1-2)Man(a1-6)]Man(b1-4)GlcNAc(b1-4)GlcNAc
# In short: as §1
# [23] = biological target: Fuc(a1-2)Gal(b1-4)Glc
# In short: as §1
# [24] = biological target: Fuc(a1-2)Gal(b1-4)Glc6S
# In short: as §1
# [25] = biological target: Fuc(a1-2)Gal(b1-4)GlcNAc
# In short: as §1
# [26] = biological target: Fuc(a1-2)Gal(b1-4)GlcNAc(b1-2)Man
# In short: as §1
# [27] = biological target: Fuc(a1-2)Gal(b1-4)GlcNAc(b1-2)Man(a1-3)[Fuc(a1-2)Gal(b1-4)GlcNAc(b1-2)Man(a1-6)]Man(b1-4)GlcNAc(b1-4)GlcNAc
# In short: as §1
# [28] = biological target: Fuc(a1-2)Gal(b1-4)GlcNAc(b1-2)Man(a1-3)[Fuc(a1-2)Gal(b1-4)GlcNAc(b1-2)Man(a1-6)]Man(b1-4)GlcNAc(b1-4)[Fuc(a1-6)]GlcNAc
# In short: as §1
# [29] = biological target: Fuc(a1-2)Gal(b1-4)GlcNAc(b1-2)[Fuc(a1-2)Gal(b1-4)GlcNAc(b1-4)]Man(a1-3)[Fuc(a1-2)Gal(b1-4)GlcNAc(b1-2)Man(a1-6)]Man(b1-4)GlcNAc(b1-4)GlcNAc
# In short: as §1
# [30] = biological target: Fuc(a1-2)Gal(b1-4)GlcNAc(b1-3)Gal(b1-4)GlcNAc
# In short: as §1
binder,measurement,setting,value
"Cp ZmpB (Clostridium perfringens), Q0TR08 (protein) MNKRKIAAIILATMITNLSATTIDVLAQELNTKNNSKVEVSHDDESHQARVSKFDLYNSDKLDAYNQEFQVSRSNIKSINNNGGKYNSSTIDKAIDGNLETHWETGKPNDANFTNEVVVTFNEITNIDRIVYSARRDSARGKGFAKEFEIYASLKDEGDDFNLVSSGEYTESTRDLVEIKFNPTDFKRLKFKFKKADQNWASAAEFMFYKEDKLNEKFNGLFTDSSMNKVSEEFNTLEKLNAFENELKDHPIYDLYKEGLNNARAILTETSENPTKATLGQITYNLNDDYNNQYRMPYKNIKAIKNNGRHYAAQNIEKAIDNDVNTYWETGTLNSSSFNNEVEVEFNDLVTLDRIVYGSRQSDLKGFAEEVYIYASRTSKGDTYKLVATGAHEATKGLVEAKFEPTEFKRVKFKFKKSKQNSATLNELMFYKPDEVYSSIPKLFTDGTMSELSEEFNSLEKINAFKEKAKNHPLYNDFNETIELAESLISNPRKEDVLELEMRGDSISEAKKRKVWNFQDWQITGLSARAGDKITVYVDVAEGDPTPTLLYKQSLTQHGGATSFQLKPGKNEITIPEINYESNGIPKDVIQGGDLFFTNYKSDSQKRAPKVRIEGASKYPVFILGKSDENEVMKELEAYVEKIKAEPKTTPNIFAVSSNKSLEFVQATYALDWYKKNNKTPKYTAEQWDQYIADAMGFWGFDNSKDVNSDFNFRIMPMVKNLSGGAFMNAGNGVIGIRPGNQDAILAANKGWGVAHELGHNFDTGGRTIVEVTNNMMPLFFESKYKTKTRITDQNIWENNTYPKVGLDDYSNNELYNKADSTHLAQLAPLWQLYLYDNTFYGKFERQFRERDFGNKNREDIYKSWVVAASDAMELDLTEFFARHGIRVDDKVKEDLAKYPKPDKKIYYLNDLAMNYKGDGFTENAKVSVSTSGSNGNIKLSFSVDDENKDNILGYEIRRDGKYVGFTSNDSFVDTKSNLDEDGVYVVTPYDRKLNTLNPIEVNALQPTLSVNPVITLALGEEFNEEEYIVAKDIKGNSLSESVKVKSSNVNTSKVGEYEVLYSLEDSKGNEYTKTSKVNVVSRKEYMSDLTPKQSSNGWGTVRKDKSISGGVIGLTRDGDFVDYNKGLGLHSNAEYVYDLEGKDYDYFESYVGVDKAMSSRPASSVIFKVLVDGEEKFNSGVMRSTTPQKYVKVDVKNAKELKLIVNDAGDGDSSDHASFGDAKLATLSSKPIIKGENLAYSMDEKVDLMKGITATDIEDGNITSKVQIKSSDFVEGKSGIFTVVYSVTDSDGLTSECSRTIAVTDKETQLSDLNWKSATIGSGSVRKDRAVSGNQIRLLNEDNSVETFAKGIGTHSYSEIVYNSEGYDIFDTWVGIDRHVADKKVSSVKFKVYVDGELKAETDVMRIDTPKKRLVVDVRNSKEIKLVVDVADNGNNWDHADWADAKFRNLAEYDASELNKAIEEAKKLDLNNYTEESSEALKNAISKGEEALLSKDKETINSALEELNKEMNSLVKVDLNAVINIPDKYLLKSIQNQLNKTGDITLGDMYSLTTLTLSGVEDLTGLENAKNLETLNMDYNEVKDLRPLSKLKKLNTLNAQEQFIAAGELKPSNGKVIGDSKVYNREGKNVAKTIRVVDKNGNTILEQDAKDEFTINTKDLSSGLYGVHVLFEDEGFSGVMFYLFNV",glycan array binding signal (z-score),[1],22.4
same,glycan array binding signal (z-score),[2],-0.22
same,glycan array binding signal (z-score),[3],-0.186
same,glycan array binding signal (z-score),[4],0.094
same,glycan array binding signal (z-score),[5],-0.497
same,glycan array binding signal (z-score),[6],-0.059
same,glycan array binding signal (z-score),[7],-0.152
same,glycan array binding signal (z-score),[8],-0.148
same,glycan array binding signal (z-score),[9],-0.223
same,glycan array binding signal (z-score),[10],-0.378
same,glycan array binding signal (z-score),[11],-0.145
same,glycan array binding signal (z-score),[12],0.441
same,glycan array binding signal (z-score),[13],-0.269
same,glycan array binding signal (z-score),[14],0.057
same,glycan array binding signal (z-score),[15],-0.4
same,glycan array binding signal (z-score),[16],0.098
same,glycan array binding signal (z-score),[17],0.061
same,glycan array binding signal (z-score),[18],0.36
same,glycan array binding signal (z-score),[19],-0.353
same,glycan array binding signal (z-score),[20],-0.133
same,glycan array binding signal (z-score),[21],-0.068
same,glycan array binding signal (z-score),[22],-0.079
same,glycan array binding signal (z-score),[23],-0.329
same,glycan array binding signal (z-score),[24],-0.219
same,glycan array binding signal (z-score),[25],-0.137
same,glycan array binding signal (z-score),[26],0.069
same,glycan array binding signal (z-score),[27],-0.207
same,glycan array binding signal (z-score),[28],-0.252
same,glycan array binding signal (z-score),[29],-0.24
same,glycan array binding signal (z-score),[30],-0.293
